The IC50 comes from the fitted curve, where viability falls to half of the control; where the fit passes the top or lowest dose, that dose stands as a limit. The AUC spans the tested range (256-fold, ending at the top dose) of the same fit; values near 1 show little effect. For part of these data: The top dose, if marked as inferred, comes from the curve model; the source does not state it. For part of these data: An entry number marks a drug with two screens in the source, which often give different values.
Legend:
Assay in all cases: Viability of human cancer cell lines after 72 h of drug (GDSC screen)
[1] = compound: NC(=O)C1CCCc2c1[nH]c1ccc(Cl)cc21 [EX-527]; settings: top dose 20 µM
Description: (§1)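 Human cancer cell lines in 384-well plates, medium with 10% serum, drug for 72 h over a 256-fold dose range (nine 2-fold or five 4-fold steps up to the top dose). Adherent lines were fixed and stained with the nucleic acid dye Syto60, suspension lines read with resazurin; signal relative to control wells, capped at 0 and 100%. One two-parameter sigmoid per drug and line, fitted in a mixed model over all curves with the slope shared within a line.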

[2] = compound: N#CC(c1ccnc(NCCc2cccnc2)n1)c1nc2ccccc2s1 [AS601245]; settings: top dose 8 µM; top dose inferred
Description: as §1

[3] = compound: Cn1cnc2c(F)c(Nc3ccc(Br)cc3Cl)c(C(=O)NOCCO)cc21 [AZD6244]; settings: top dose 4 µM; screen: GDSC drug entry 1498; top dose inferred
Description: as §1

[4] = compound: Nc1ccc(C(=O)Nc2cccc(-c3nc(N4CCOCC4)c4oc5ncccc5c4n3)c2)cn1 [YM201636]; settings: top dose 5.12 µM; top dose inferred
Description: as §1

Cell Line | AUC [1] | IC50 [1] [µM] | AUC [2] | IC50 [2] [µM] | AUC [3] | IC50 [3] [µM] | AUC [4] | IC50 [4] [µM]
A375 (melanoma, adherent) | 0.983 | > 20 | 0.819 | 3.55 |  |  |  | 
A704 (kidney, adherent) |  |  | 0.873 | 7.28 | 0.952 | > 4 | 0.917 | > 5.12
CAPAN-1 (pancreas, adherent) | 0.986 | > 20 | 0.862 | > 8 |  |  |  | 
Calu-3 (lung adenocarcinoma, adherent) | 0.982 | > 20 | 0.933 | > 8 | 0.955 | > 4 |  | 
D-566MG (glioma, adherent) | 0.981 | > 20 |  |  | 0.924 | > 4 | 0.92 | > 5.12
DOV13 (ovary, adherent) | 0.981 | > 20 |  |  | 0.741 | 1.38 | 0.91 | > 5.12
EMC-BAC-1 (lung adenocarcinoma, adherent) | 0.969 | > 20 |  |  | 0.929 | > 4 | 0.845 | 4.51
EMC-BAC-2 (lung adenocarcinoma, adherent) | 0.901 | > 20 |  |  | 0.862 | > 4 | 0.907 | > 5.12
ESO26 (oesophagus, adherent) | 0.986 | > 20 |  |  | 0.967 | > 4 | 0.837 | 3.16
ESO51 (oesophagus, semi-adherent) | 0.972 | > 20 |  |  | 0.871 | > 4 | 0.901 | > 5.12
FLO-1 (oesophagus, adherent) | 0.975 | > 20 |  |  | 0.803 | 3.15 | 0.815 | 4.61
H290 (mesothelioma, adherent) |  |  | 0.865 | 6.09 | 0.838 | 2.37 |  | 
HCT-116 (large intestine, adherent) | 0.983 | > 20 | 0.901 | > 8 | 0.705 | 0.913 |  | 
Hey (ovary, adherent) | 0.985 | > 20 |  |  | 0.725 | 1.04 | 0.935 | > 5.12
Hs746T (stomach, adherent) | 0.981 | > 20 |  |  | 0.872 | > 4 | 0.954 | > 5.12
JHOS-2 (ovary, adherent) | 0.983 | > 20 |  |  | 0.673 | 0.828 | 0.895 | > 5.12

Cell Line | AUC [1] | IC50 [1] [µM] | AUC [2] | IC50 [2] [µM] | AUC [3] | IC50 [3] [µM] | AUC [4] | IC50 [4] [µM]
JHOS-3 (ovary, adherent) | 0.981 | > 20 |  |  | 0.725 | 1.33 | 0.873 | > 5.12
JHU-029 (head and neck, adherent) |  |  | 0.826 | 6.4 | 0.669 | 0.829 |  | 
KMS-11 (myeloma, suspension) | 0.99 | > 20 |  |  | 0.988 | > 4 | 0.65 | 0.777
KP-1N (pancreas, adherent) |  |  | 0.763 | 3.02 | 0.851 | 3.29 |  | 
KYAE-1 (oesophagus, suspension) | 0.985 | > 20 |  |  | 0.924 | > 4 | 0.677 | 1.06
LN-229 (glioma, adherent) | 0.983 | > 20 | 0.904 | > 8 | 0.862 | 3.4 |  | 
NCC021 (kidney, adherent) | 0.985 | > 20 |  |  | 0.966 | > 4 | 0.91 | > 5.12
NCI-H460 (large cell lung carcinoma, adherent) |  |  | 0.841 | 4.81 | 0.897 | > 4 |  | 
NCI-H630 (large intestine, adherent) | 0.974 | > 20 |  |  | 0.858 | 3.68 | 0.925 | > 5.12
NCI-H2023 (lung adenocarcinoma, adherent) | 0.981 | > 20 |  |  | 0.921 | > 4 | 0.895 | > 5.12
OACM5-1 (oesophagus, semi-adherent) | 0.985 | > 20 |  |  | 0.976 | > 4 | 0.46 | 0.245
OACp4C (oesophagus, adherent) | 0.982 | > 20 |  |  | 0.818 | 2.85 | 0.782 | 2.6
OC-314 (ovary, adherent) | 0.991 | > 20 |  |  | 0.919 | > 4 | 0.946 | > 5.12
OV-7 (ovary, adherent) | 0.976 | > 20 |  |  | 0.847 | > 4 | 0.834 | > 5.12
OV-17R (ovary, adherent) | 0.972 | > 20 |  |  | 0.898 | > 4 | 0.857 | > 5.12
